# Measurements reported in publication PMC4336329 (PLoS ONE, 2015).
# The campaign covered roughly 310,000 compounds. About 2,200 (0.71%) showed an effect of 50% or more. Effects have a minus sign here. The list shows a part of the results.
# Target: human ether-à-go-go-related gene (hERG) potassium channel (human, UniProt Q12809)
# Assay: primary screen, population patch clamp on CHO cells stably expressing hERG
# Chain of human ether-à-go-go-related gene (hERG) potassium channel (Q12809 whole entry, looked up): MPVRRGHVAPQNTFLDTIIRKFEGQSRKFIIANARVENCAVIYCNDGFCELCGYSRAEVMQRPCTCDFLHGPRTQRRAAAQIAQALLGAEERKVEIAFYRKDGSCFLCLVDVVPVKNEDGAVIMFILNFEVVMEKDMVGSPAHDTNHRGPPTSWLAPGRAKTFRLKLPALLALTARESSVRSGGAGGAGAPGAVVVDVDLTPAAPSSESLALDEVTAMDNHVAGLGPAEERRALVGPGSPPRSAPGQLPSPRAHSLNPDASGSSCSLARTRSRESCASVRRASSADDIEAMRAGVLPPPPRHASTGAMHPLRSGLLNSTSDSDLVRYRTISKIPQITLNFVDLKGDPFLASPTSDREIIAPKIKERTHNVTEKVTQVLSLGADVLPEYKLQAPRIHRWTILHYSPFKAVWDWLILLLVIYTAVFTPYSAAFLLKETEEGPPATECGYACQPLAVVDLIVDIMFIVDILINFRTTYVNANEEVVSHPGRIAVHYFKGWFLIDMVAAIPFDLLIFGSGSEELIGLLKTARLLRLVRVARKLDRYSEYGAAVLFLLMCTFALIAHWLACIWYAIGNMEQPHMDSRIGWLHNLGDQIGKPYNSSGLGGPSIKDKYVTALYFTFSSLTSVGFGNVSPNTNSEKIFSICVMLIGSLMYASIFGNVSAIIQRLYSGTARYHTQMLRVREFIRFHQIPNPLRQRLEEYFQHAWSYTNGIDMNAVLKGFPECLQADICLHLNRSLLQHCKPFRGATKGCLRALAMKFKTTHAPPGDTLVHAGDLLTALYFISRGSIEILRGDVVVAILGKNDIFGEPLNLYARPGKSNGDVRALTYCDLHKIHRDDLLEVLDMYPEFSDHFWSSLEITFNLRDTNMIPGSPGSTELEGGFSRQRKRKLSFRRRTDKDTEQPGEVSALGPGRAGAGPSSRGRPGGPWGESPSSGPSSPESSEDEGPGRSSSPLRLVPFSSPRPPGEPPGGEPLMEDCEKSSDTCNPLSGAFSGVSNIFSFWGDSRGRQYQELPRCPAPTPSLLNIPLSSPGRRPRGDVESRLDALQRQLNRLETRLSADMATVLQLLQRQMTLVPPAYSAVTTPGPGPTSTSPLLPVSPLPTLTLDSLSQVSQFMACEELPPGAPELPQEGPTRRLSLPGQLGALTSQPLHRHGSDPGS
row,SMILES,"hERG current change (%, negative = inhibition) at 1uM [%]"
1,CCOc1ccc(N2CC(C(=O)Nc3ccc(N4CCOCC4)cc3)CC2=O)cc1 (stereo not drawn),10.3
2,CC(C)(C)c1ccc(-c2nc(O)c(CC(=O)O)s2)cc1,7.54
3,CC(C)COc1ccc(/C=C2/Sc3ccccc3C2=O)cc1,18.3
4,CCN(CC)C(=O)c1cc2c(=O)c3cc(Cl)ccc3oc2nc1C,-15
5,Cc1ccc(C(=O)NNC(=O)OC(C)(C)C)c(Cl)c1,1.71
6,COc1ccc(/C=N/NC(=O)c2ccccc2OC)cc1COc1ccc(C)cc1,14.5
7,CC(C)Cc1ccc([C@H](C)C(=O)O)cc1,8.42
8,Cc1cccc(N/C=C/C(=O)c2cccs2)c1C,14.2
9,CCN(CC)c1ccc(/C=N/NC(=O)c2ccc3nc[nH]c3c2)cc1,6.09
10,COc1ccc(N2CCN(CC(=O)Nc3ccccc3SC)CC2)cc1,8.12
11,COc1ccc(CNC(=O)CCn2ccc3cc(S(=O)(=O)N4CCCC4)ccc32)cc1,9.44
12,N#C/C(=N\Nc1ccccc1)C(=N)N1CCCCC1,-0.163
13,CCC(=O)c1ccc(OCC(=O)N2CCN(c3ncccn3)CC2)cc1,7.61
14,CC(=O)N(c1ccccc1C)S(=O)(=O)c1ccc(Cl)cc1,10
15,COc1cccc(N(CC(=O)NCC2CCCO2)C(=O)CNS(=O)(=O)c2ccccc2)c1 (stereo not drawn),17.7
16,O=C(NC1CCCCC1)C(c1ccc(O)cc1)N(CC1CCCO1)C(=O)C1COc2ccccc2O1 (stereo not drawn),7.86
17,Cc1ccc(C2(C(F)(F)F)NC(=O)N3N=C4CCCCCN4C3=C2C#N)cc1 (stereo not drawn),1.63
18,C/C=C(/C)C(=O)O[C@@H]1c2c(ccc3ccc(=O)oc23)OC(C)(C)[C@@H]1OC(=O)/C(C)=C\C,9.46
19,COc1cc(O)cc(O)c1C(=O)/C=C/c1ccccc1,12.6
20,Cc1ccc(S(=O)(=O)N2CCSC2=Nc2ccccc2)cc1,10.9
21,CCCOc1cccc(C(=O)Nc2cccnc2)c1,-4.26
22,CCCC(=O)N1CCN(C2=NS(=O)(=O)c3ccccc32)CC1,6.51
23,Cc1ccccc1C(=O)c1cccn1CC(=O)NC1CCCC(C)C1C (stereo not drawn),6.18

row,SMILES,"hERG current change (%, negative = inhibition) at 1uM [%]"
1,O=C(NCCc1ccccn1)C(F)(F)C(F)(F)C(F)(F)C(F)(F)C(F)(F)C(F)F,-2.94
2,COc1ccc(C(=O)/C(=C/O)N=Nc2ccc(F)cc2)cc1,5.01
3,Cc1cccc(CCNC(=O)CN(C)S(=O)(=O)c2ccc3c(c2)c(=O)n(C)c(=O)n3C)c1,4.52
4,CCN(CC)C(=O)CSc1nnc(COc2ccccc2)n1N,1.64
5,Cc1c(N(C)C(=O)c2ccccc2F)c(=O)n(-c2ccccc2)n1C,14.3
6,Cc1nc2c(cc1N)nc(C)n2Cc1ccccc1,11.8
7,O=C(NCCCc1ccccc1)c1ccc(CS(=O)Cc2ccc(Cl)cc2)o1 (stereo not drawn),-40.9
8,CC(C)Cn1nc(C(=O)OCC(=O)NCC(F)(F)F)c2ccccc2c1=O,6.89
9,COc1cccc(CCc2nnc(CCC(=O)NCCc3cccc(C)n3)o2)c1,19.7
10,O=C(Nc1ccc(S(=O)(=O)N2CCCCC2)cc1)C1CC1,10.4
11,Cc1c(NC(=O)C(C)OC(=O)c2cccs2)c(=O)n(-c2ccccc2)n1C (stereo not drawn),5.84
12,O=C(CNC(=O)c1cccc(F)c1)OCC(=O)N1CCCCC1,3.21
13,COC(=O)Nc1nc(C)c(C(=O)N(C)C)s1,11.2
14,CN(C)S(=O)(=O)c1ccc(C(=O)OCn2nnc3ccccc3c2=O)cc1,0.324
15,C=CCn1c(SCC(=O)N(C)C)nc2cc(C(=O)O)ccc2c1=O,27.8
16,Cc1ccc(Sc2c([N+](=O)[O-])c(C)nn2C)cc1,13.8
17,CCn1c(SCC(=O)NCCc2ccccc2)nnc1C(C)C,12
18,O=C1CSC(=S)N1c1cccnc1,3.32
19,COc1cccc(-c2cc(C(F)(F)F)n3ncc(C(=O)N4CCc5ccccc5C4)c3n2)c1,8.03
20,Oc1c(C=NCc2ccc(F)cc2)[nH]c2ccc(Br)c(Cl)c12,5.29
21,COc1ccc(CC(=O)Nc2cc(C)ccn2)cc1OC,14.2
22,CCCCCCc1ccc(OCC(=O)O)cc1OCC(=O)O,7.98
